# Test results published in publication PMC7819943, “Rice protein-binding microarrays: a tool to detect cis-acting elements near promoter regions in rice”.
# Some of the results follow.
# Target: T1, OsWOX13 (Oryza sativa, UniProt Q5QMM3 1-267)
# T1 sequence: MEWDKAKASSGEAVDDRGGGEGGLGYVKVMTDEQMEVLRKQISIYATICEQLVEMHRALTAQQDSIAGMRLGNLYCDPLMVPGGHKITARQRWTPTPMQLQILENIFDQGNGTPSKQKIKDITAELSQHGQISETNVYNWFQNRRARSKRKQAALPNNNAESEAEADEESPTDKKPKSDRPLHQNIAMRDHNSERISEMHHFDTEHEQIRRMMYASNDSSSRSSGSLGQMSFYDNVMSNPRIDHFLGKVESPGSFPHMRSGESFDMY
# Experiment: protein-binding microarray (RPBM); PBS, 2% BSA, 51.3 ng/ul salmon testes DNA, 50 uM zinc acetate, 200 nM TF, 25 C, 1 h; high values mean tight binding
# Settings: protein: recombinant; tags: N-terminal polyhistidine and DsRed monomer fusion (pET32a); label: CyDye5-dUTP incorporated in the synthesized complementary strand; 3' TTTTT single-stranded linker to array surface; dsDNA, one strand shown
# Summary of the method: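 Per-feature fluorescence intensity (arbitrary units), read on an Axon 4000B scanner, is the binding signal. Transcription factors carrying an N-terminal polyhistidine tag and DsRed fusion were expressed in E. coli BL21-CodonPlus and purified on Ni–NTA. A custom Agilent array, made double-stranded by primer extension with Cy5-dUTP and blocked with 2% BSA, was incubated with 200 nM protein in PBS, 2% BSA, salmon testes DNA and 50 µM zinc acetate at 25 °C for 1 h and then washed.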
row,Sequence,binding signal
1,CAAATTAATGAGGGTAAATTGGTCAGTTTTAGTAGACATTCGGAGTCACCTAGTGCAG,30100 fluorescence intensity (a.u.)
2,AAATAAGATTGACAATTAAAGTTGGAAACGAAAACTAATGCGGAGTCACCTAGTGCAG,47500 fluorescence intensity (a.u.)
3,GCTAACTTTTCAATCTCTGTGACCGTTTGATTTATTGTCTCGGAGTCACCTAGTGCAG,23000 fluorescence intensity (a.u.)
4,AGACTAGACAAAATTGAAGGCCATAATATGGTACAGCCTCCGGAGTCACCTAGTGCAG,4660 fluorescence intensity (a.u.)
5,GCACTATCAATCTAGAGATAGGTCATGTCCAAATTCGTAGCGGAGTCACCTAGTGCAG,4380 fluorescence intensity (a.u.)
6,CCAAGAAAATGCCATGATTGATGTCGGGGTGTAAGAGATGCGGAGTCACCTAGTGCAG,28600 fluorescence intensity (a.u.)
7,GCTTGTTTGTTGTGATTAGTACTAATGGGTAAGAATGTTCCGGAGTCACCTAGTGCAG,18800 fluorescence intensity (a.u.)
8,ACAGTAATGTGCACAAATTGCCAAAAGAATTTATGCATGCCGGAGTCACCTAGTGCAG,14700 fluorescence intensity (a.u.)
9,TTCTCTTTAATTCGACACTAATCAAGTTATTTGCTGCGACCGGAGTCACCTAGTGCAG,5600 fluorescence intensity (a.u.)
10,GTTTGATTGGAGCAATGTCTCAATGGGTGAGAAGATGAGGCGGAGTCACCTAGTGCAG,54300 fluorescence intensity (a.u.)
11,GAAAATTGATTTATTTTGATCACAGAGAGAGAGAGAGGGTCGGAGTCACCTAGTGCAG,49200 fluorescence intensity (a.u.)
12,TGTTGGATTTGATTGCAATCTCACACTCTCACAGGGTCACCGGAGTCACCTAGTGCAG,31300 fluorescence intensity (a.u.)
13,TTTTAGTTTTCCTCGATTAATTAATACTGTCTTTAAATCTCGGAGTCACCTAGTGCAG,4760 fluorescence intensity (a.u.)
14,CTTTAATTACTAACAAATTATGGATTTCGAGCCCTGCTCTCGGAGTCACCTAGTGCAG,43100 fluorescence intensity (a.u.)
15,TGCTATGATTTAGTAGTCATTGAGACTTATATTCCTCATACGGAGTCACCTAGTGCAG,6670 fluorescence intensity (a.u.)
16,ACGGTGATTGATCGTAAGGAAATTTCCACTTTGCCAAACACGGAGTCACCTAGTGCAG,27700 fluorescence intensity (a.u.)
17,TCTATAAATTAATTGGCCACAGAATCAGTGATATATCTAGCGGAGTCACCTAGTGCAG,47300 fluorescence intensity (a.u.)
18,GTCTTCAATCAGTTACACAATATAATTTCTTACCAACCGACGGAGTCACCTAGTGCAG,25800 fluorescence intensity (a.u.)
19,ACTAAATTTAGGCTGTATGTATCAGTTATTTCTTCCAGATCGGAGTCACCTAGTGCAG,11500 fluorescence intensity (a.u.)
20,TCTTAGTAATGATTATGGTCTTCAGCCTAGGCAGCCTTCCCGGAGTCACCTAGTGCAG,3880 fluorescence intensity (a.u.)
21,CCTAATTAACATACCCATGCAACAGCCCCATGGAGCAGGACGGAGTCACCTAGTGCAG,32200 fluorescence intensity (a.u.)

row,Sequence,binding signal
1,TAAATGGATGATTAGTATAATCACTTATCGTTGATCTGTGCGGAGTCACCTAGTGCAG,36100 fluorescence intensity (a.u.)
2,GTCAGTAATCAAGTTTATACGTATAAAATGCATGCACAAACGGAGTCACCTAGTGCAG,3340 fluorescence intensity (a.u.)
3,GGTTGATTGGATGAGAGTGAATAAAATAAATATTTATGTTCGGAGTCACCTAGTGCAG,45800 fluorescence intensity (a.u.)
4,TTTTATAAACTTGATCAAATTTGAATAAATTTGACTAGAACGGAGTCACCTAGTGCAG,4500 fluorescence intensity (a.u.)
5,TTGCAGGCAATCTTGATAAATTAATTGCTCTACTTTAGAGCGGAGTCACCTAGTGCAG,14400 fluorescence intensity (a.u.)
6,AAAATATAGCAAATTAGACATAACATGTAACACGAATCTGCGGAGTCACCTAGTGCAG,5090 fluorescence intensity (a.u.)
7,TTAATTGATTTAGTTGGTGACCTTATATCTTGTTTAGATACGGAGTCACCTAGTGCAG,60600 fluorescence intensity (a.u.)
8,GAGTGGTGGAGGGTTGTGATTGGATGAGTAGTGGAGGTAGCGGAGTCACCTAGTGCAG,5190 fluorescence intensity (a.u.)
9,ATTTAAAGTTTTAATTTGTGATCATACGTGACAAACAGCGCGGAGTCACCTAGTGCAG,5790 fluorescence intensity (a.u.)
10,ATGGCAGTTAATTTGATGTAAATTGCAACATTTCAAAAGCCGGAGTCACCTAGTGCAG,24900 fluorescence intensity (a.u.)
11,AAAATAGATAATTTTATGACGGTGTTACCCCTGCAATTGCCGGAGTCACCTAGTGCAG,17300 fluorescence intensity (a.u.)
12,ATCGGCATGTTCACCAGCTCTGATTGGTAGTACGATTTTACGGAGTCACCTAGTGCAG,5140 fluorescence intensity (a.u.)
13,TACTAAGGAGTGATTAATTTGAGGCTATTCTTCCATGTCTCGGAGTCACCTAGTGCAG,4050 fluorescence intensity (a.u.)
14,TTGTTTATTTATGCTTAGATTGTTGATTCCATCCTTGTGGCGGAGTCACCTAGTGCAG,5690 fluorescence intensity (a.u.)
15,TAGCATATTGATTGAAAACCCGTTCCCATGCAATGTGGCACGGAGTCACCTAGTGCAG,48600 fluorescence intensity (a.u.)
16,TTTACATGACTGAATGATGCTTTGTAGTATGATGCAGAGACGGAGTCACCTAGTGCAG,5450 fluorescence intensity (a.u.)
17,GGGGATTGGTTTGGTGTGGGTGTTTTGTGTGGGGATTGATCGGAGTCACCTAGTGCAG,11500 fluorescence intensity (a.u.)
18,TATGTCGAAATTAATTGAGATTTGAATAAAAGTGGGTTTTCGGAGTCACCTAGTGCAG,23300 fluorescence intensity (a.u.)
19,TCAAAACTGAATTATCTTTGCGTGTGTGTTTGATCTATTTCGGAGTCACCTAGTGCAG,3720 fluorescence intensity (a.u.)
20,AAGGGATTGATGATCTTGTACATAAGGAATACAAAGATCCCGGAGTCACCTAGTGCAG,16500 fluorescence intensity (a.u.)
21,ATGATTTGATTGGTCAGGACATTATTATCTTGGTCGTACTCGGAGTCACCTAGTGCAG,37500 fluorescence intensity (a.u.)
